Experimental data published in the supplement of paper PMC12645437, “Orthogonal IMiD-Degron Pairs Induce Selective Protein Degradation in Cells” (ACS Chemical Biology, 2025).
The other results are listed elsewhere or left out.
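Also: jurkat cells carrying a lentiviral library of mutant zinc finger degrons fused to EGFP plus mCherry, mCherry+ cells FACS sorted, degron abundance counted by next-generation sequencing.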

Each sequence was assayed against no compound (DMSO) (assay: log2 fold change of degron read counts, EGFP-low vs EGFP+ sorted cells; higher = lower degron-EGFP level without compound (poor expression or instability)). Conditions: compound: DMSO control; 18 h.
For FQCPICGRCFTQKGNLLRHIKL, the “log2 fold change of degron read counts” value was 0.141.
In the case of FNCNQCGHKFTQKGNLLRHIKL, the “log2 fold change of degron read counts” value is reported as 0.376.
FVCNQCGAQFTQKGNLLRHIKL was tested, and the “log2 fold change of degron read counts” value was -1.51.
In the case of FWCNICGASFTQKGNLLRHIKL, the “log2 fold change of degron read counts” value is reported as 0.542.
In the case of FACDVCGAVFTQKGNLLRHIKL, the “log2 fold change of degron read counts” value is reported as -1.53.
With FNCDVCGAPFTQKGNLLRHIKL the “log2 fold change of degron read counts” value was -0.764.
With FDCDVCGAAFTQKGNLLRHIKL the “log2 fold change of degron read counts” value was -0.799.
With FNCDICGACFTQKGNLLRHIKL the “log2 fold change of degron read counts” value was -0.666.
With FICNVCGAIFTQKGNLLRHIKL the “log2 fold change of degron read counts” value was -0.273.
In the case of FFCDVCGAWFTQKGNLLRHIKL, the “log2 fold change of degron read counts” value is reported as 0.622.
FFCNVCGAWFTQKGNLLRHIKL was tested, and the “log2 fold change of degron read counts” value was 0.934.
In the case of FWCDQCGAHFTQKGNLLRHIKL, the “log2 fold change of degron read counts” value is reported as -0.288.
In the case of LYCPICGFMCTQKGNLLRHIKL, the “log2 fold change of degron read counts” value is reported as 0.837.
In the case of FWCDVCGAWFTQKGNLLRHIKL, the “log2 fold change of degron read counts” value is reported as 1.12.
For LRCEICGFVCTQKGNLLRHIKL, the “log2 fold change of degron read counts” value was -0.000159.
In the case of FQCEQCGACFTQKGNLLRHIKL, the “log2 fold change of degron read counts” value is reported as -1.6.
For FVCEVCGARFTQKGNLLRHIKL, the “log2 fold change of degron read counts” value was -2.24.
FGCSVCGHPFTQKGNLLRHIKL was tested, and the “log2 fold change of degron read counts” value was 0.652.
For FWCNQCGRPFTQKGNLLRHIKL, the “log2 fold change of degron read counts” value was 1.26.
For LFCPICGFCCTQKGNLLRHIKL, the “log2 fold change of degron read counts” value was 2.33.
In the case of LGCNQCGFPCTQKGNLLRHIKL, the “log2 fold change of degron read counts” value is reported as 1.21.
With FHCEICGRTFTQKGNLLRHIKL the “log2 fold change of degron read counts” value was -1.47.
With LNCEICGFTCTQKGNLLRHIKL the “log2 fold change of degron read counts” value was -1.2.
With FVCDICGARFTQKGNLLRHIKL the “log2 fold change of degron read counts” value was -1.98.
FACNVCGAAFTQKGNLLRHIKL was tested, and the “log2 fold change of degron read counts” value was -0.579.
FCCNQCGHGFTQKGNLLRHIKL was tested, and the “log2 fold change of degron read counts” value was 0.0209.
With FFCEVCGAMFTQKGNLLRHIKL the “log2 fold change of degron read counts” value was -0.513.
With FQCNQCGAPFTQKGNLLRHIKL the “log2 fold change of degron read counts” value was -1.21.
In the case of FECSVCGHSFTQKGNLLRHIKL, the “log2 fold change of degron read counts” value is reported as -1.61.
In the case of FECPICGHWFTQKGNLLRHIKL, the “log2 fold change of degron read counts” value is reported as -0.518.
With FDCPQCGAYFTQKGNLLRHIKL the “log2 fold change of degron read counts” value was -0.321.
For LRCEICGFQCTQKGNLLRHIKL, the “log2 fold change of degron read counts” value was -0.406.
With FGCPQCGAGFTQKGNLLRHIKL the “log2 fold change of degron read counts” value was -1.28.
In the case of FCCPVCGAVFTQKGNLLRHIKL, the “log2 fold change of degron read counts” value is reported as -0.161.
FDCEQCGADFTQKGNLLRHIKL was tested, and the “log2 fold change of degron read counts” value was -1.02.
FYCDQCGAIFTQKGNLLRHIKL was tested, and the “log2 fold change of degron read counts” value was -0.263.
In the case of FDCNQCGHVFTQKGNLLRHIKL, the “log2 fold change of degron read counts” value is reported as 0.705.
With FDCNICGAWFTQKGNLLRHIKL the “log2 fold change of degron read counts” value was 0.926.
FYCNQCGAGFTQKGNLLRHIKL was tested, and the “log2 fold change of degron read counts” value was -0.259.
In the case of FWCPICGHSFTQKGNLLRHIKL, the “log2 fold change of degron read counts” value is reported as 1.07.
With LLCEICGFLCTQKGNLLRHIKL the “log2 fold change of degron read counts” value was 1.37.
For FMCEVCGARFTQKGNLLRHIKL, the “log2 fold change of degron read counts” value was -1.65.
For FTCPVCGAMFTQKGNLLRHIKL, the “log2 fold change of degron read counts” value was -0.185.
FRCDICGAAFTQKGNLLRHIKL was tested, and the “log2 fold change of degron read counts” value was -1.19.
With LYCPICGFGCTQKGNLLRHIKL the “log2 fold change of degron read counts” value was 1.34.
FVCPVCGAYFTQKGNLLRHIKL was tested, and the “log2 fold change of degron read counts” value was 0.865.
With FQCDVCGASFTQKGNLLRHIKL the “log2 fold change of degron read counts” value was -2.15.
LMCNQCGFPCTQKGNLLRHIKL was tested, and the “log2 fold change of degron read counts” value was 0.289.
In the case of FWCDVCGAPFTQKGNLLRHIKL, the “log2 fold change of degron read counts” value is reported as -0.561.
For FGCPICGARFTQKGNLLRHIKL, the “log2 fold change of degron read counts” value was -1.29.
